# Assay results reported in the BET-seq Pho4 binding data (Le et al. 2018).
# The other results are listed elsewhere or left out. The energies were worked out here from pooled read counts, against the library average; single values are noisy.
# Target: T1, Pho4 (S. cerevisiae) (UniProt P07270)
# T1 sequence: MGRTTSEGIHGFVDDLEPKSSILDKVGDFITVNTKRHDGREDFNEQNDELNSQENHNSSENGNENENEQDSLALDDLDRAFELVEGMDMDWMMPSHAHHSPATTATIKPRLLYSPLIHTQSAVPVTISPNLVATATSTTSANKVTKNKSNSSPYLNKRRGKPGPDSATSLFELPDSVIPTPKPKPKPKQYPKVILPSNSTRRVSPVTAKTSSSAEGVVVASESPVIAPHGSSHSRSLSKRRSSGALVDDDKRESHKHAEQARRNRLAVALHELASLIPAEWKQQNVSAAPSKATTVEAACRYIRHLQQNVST
# Assay: relative binding free energy (BET-seq); higher = weaker binding
# Conditions: reference: library average
row,Sequence,relative binding free energy
1,GTTCGCACGTGGGAGC,0.02 kcal/mol
2,GTGTGCACGTGGATAG,0.05 kcal/mol
3,GATGGCACGTGTGTGC,0.02 kcal/mol
4,TTTTGCACGTGGGCTA,-0.17 kcal/mol
5,TGCTGCACGTGGTGGA,-0.25 kcal/mol
6,GGATCCACGTGTAGTG,0.03 kcal/mol
7,TATTGCACGTGGATGA,-0.06 kcal/mol
8,TCTGTCACGTGGTTTT,0.16 kcal/mol
9,TTTGGCACGTGTATGA,-0.06 kcal/mol
10,AAAGTCACGTGGTTGA,0.11 kcal/mol
11,TGTATCACGTGAATGG,0.22 kcal/mol
12,ATTGACACGTGTTGCG,0.05 kcal/mol
13,TTTCACACGTGTAGTT,0.11 kcal/mol
14,GTGGTCACGTGATTGA,0.33 kcal/mol
15,GTTCTCACGTGTGGTA,0.22 kcal/mol
16,GGCTACACGTGATTGT,0.3 kcal/mol
17,TAGGTCACGTGGGACT,0.06 kcal/mol
18,TAATTCACGTGATGGA,0.09 kcal/mol
19,GTGCTCACGTGCTGGT,0.18 kcal/mol
20,CTGTACACGTGGTACG,0.1 kcal/mol
21,CGATGCACGTGGCTGT,-0.1 kcal/mol
22,TGGTGCACGTGGGCCG,-0.2 kcal/mol
23,GGGTACACGTGTAAAA,0.4 kcal/mol
24,GGCTACACGTGAGTTT,0.39 kcal/mol
25,GGACTCACGTGATGGT,0.35 kcal/mol
26,GGCTGCACGTGGTGTA,-0.07 kcal/mol

row,Sequence,relative binding free energy
1,ATTTTCACGTGTCGCG,0.36 kcal/mol
2,TCTTGCACGTGCAGGG,0.09 kcal/mol
3,AAATGCACGTGTGGTT,-0.01 kcal/mol
4,TTAGGCACGTGGGTCG,-0.23 kcal/mol
5,ATTCACACGTGGGGGG,0.05 kcal/mol
6,AAGTTCACGTGGAGCT,0.33 kcal/mol
7,AGTCGCACGTGTGGAG,0.1 kcal/mol
8,TGTAGCACGTGATAGT,0.02 kcal/mol
9,TTTGACACGTGGTCGT,-0.11 kcal/mol
10,GGATCCACGTGGGTGT,-0.08 kcal/mol
11,GTAGTCACGTGGTGGC,0.09 kcal/mol
12,AGTGACACGTGGTAAT,-0.27 kcal/mol
13,GTTATCACGTGGCATT,0.05 kcal/mol
14,GGTGGCACGTGCCCGG,-0.24 kcal/mol
15,TGTGGCACGTGTTTCG,-0.07 kcal/mol
16,TAAATCACGTGTTTGG,0.05 kcal/mol
17,CGCGGCACGTGGAGGA,0.02 kcal/mol
18,GTGCGCACGTGGCAGG,-0.11 kcal/mol
19,TTCGGCACGTGGAGCG,-0.22 kcal/mol
20,TACGTCACGTGCTTGG,-0.01 kcal/mol
21,GGTGACACGTGAGGGC,0.28 kcal/mol
22,GTTGGCACGTGCGGCG,-0.16 kcal/mol
23,GAATGCACGTGCTGGG,0.1 kcal/mol
24,GACGTCACGTGGTAGG,0.07 kcal/mol
25,TGCAGCACGTGAGGCG,0.12 kcal/mol
26,GGGGTCACGTGATAAG,0.18 kcal/mol

row,Sequence,relative binding free energy
1,CTTAACACGTGGGGGT,-0.19 kcal/mol
2,GGTATCACGTGGGGCT,0.03 kcal/mol
3,AATTGCACGTGGCTTG,0.07 kcal/mol
4,GTGTTCACGTGTGCTG,0.24 kcal/mol
5,GGGTACACGTGATTGC,0.33 kcal/mol
6,TGGAGCACGTGTATAT,0 kcal/mol
7,GTTTACACGTGAGGCT,0.17 kcal/mol
8,TCGGGCACGTGTTCGT,-0.16 kcal/mol
9,TGGGTCACGTGCCTAG,0.05 kcal/mol
10,TAATGCACGTGATGTG,0.04 kcal/mol
11,TATGACACGTGTGTAT,0.02 kcal/mol
12,GGATACACGTGGGCAT,-0.02 kcal/mol
13,AGTAACACGTGTGGTG,-0.08 kcal/mol
14,TTGAGCACGTGTGTCA,-0.09 kcal/mol
15,TAGTTCACGTGCTTGG,0.23 kcal/mol
16,TGTAACACGTGTTTGA,-0.05 kcal/mol
17,TCTGGCACGTGGGGGT,-0.22 kcal/mol
18,GTCGACACGTGTGTGT,0.13 kcal/mol
19,GAGCACACGTGGGTTG,-0.07 kcal/mol
20,ACGGGCACGTGATGGA,0.14 kcal/mol
21,GGGGGCACGTGTCGTC,-0.21 kcal/mol
22,AATTGCACGTGGATGA,0.08 kcal/mol
23,TGTGTCACGTGGTGCA,-0.08 kcal/mol
24,GGGTACACGTGTAGTC,0.08 kcal/mol
25,TTGTGCACGTGACCGG,-0.1 kcal/mol
26,GTGGCCACGTGAGGAG,0.15 kcal/mol

row,Sequence,relative binding free energy
1,ACTAACACGTGTTGGG,-0.04 kcal/mol
2,TGAAACACGTGGTTTC,0.08 kcal/mol
3,TATGTCACGTGGTTAC,0.02 kcal/mol
4,AATTGCACGTGCTGGA,-0.05 kcal/mol
5,ATGGGCACGTGTGCAG,-0.06 kcal/mol
6,TCTGGCACGTGTTTAT,-0.01 kcal/mol
7,ATTGTCACGTGCGCTG,-0.02 kcal/mol
8,GATTGCACGTGTGTAT,0.15 kcal/mol
9,TTTAGCACGTGGGTCC,-0.05 kcal/mol
10,TGGATCACGTGAGGAA,0.15 kcal/mol
11,AATTACACGTGGGTGA,0 kcal/mol
12,TAGGTCACGTGATTAG,0.17 kcal/mol
13,GGTTGCACGTGCGGGC,0.02 kcal/mol
14,TTCCTCACGTGGGTTT,0.2 kcal/mol
15,TTGTGCACGTGACGGA,0.09 kcal/mol
16,GGATACACGTGAGGCG,0.31 kcal/mol
17,AGTTGCACGTGTCTGT,-0.04 kcal/mol
18,TTAAGCACGTGGGCTT,-0.27 kcal/mol
19,TCTGTCACGTGTGAGT,0.12 kcal/mol
20,TGGAACACGTGAGCGT,0.14 kcal/mol
21,TTAATCACGTGTGGCA,0.11 kcal/mol
22,CGGTACACGTGGGGGT,-0.06 kcal/mol
23,TTAATCACGTGCAGGG,0.03 kcal/mol
24,GTTGGCACGTGTGATA,0.17 kcal/mol
25,GCTGGCACGTGTGGTT,0.06 kcal/mol
26,TGAGACACGTGATTGA,0.25 kcal/mol

row,Sequence,relative binding free energy
1,TGTAACACGTGTCTGA,0.12 kcal/mol
2,TGCGGCACGTGTATTG,0.03 kcal/mol
3,TTTGTCACGTGAACAG,0.13 kcal/mol
4,CTGGGCACGTGGGGGC,-0.18 kcal/mol
5,AGTTCCACGTGAGTGG,0.44 kcal/mol
6,GTTGGCACGTGTATAC,-0.12 kcal/mol
7,GTAAGCACGTGAGGGT,0.16 kcal/mol
8,GGGTGCACGTGCTATA,-0.08 kcal/mol
9,AGTATCACGTGGAGAG,0.14 kcal/mol
10,CATTTCACGTGAGTGG,0.33 kcal/mol
11,TCGAGCACGTGGTGTG,-0.15 kcal/mol
12,TTTTTCACGTGATCGC,0.25 kcal/mol
13,CGCAGCACGTGTGGGA,0 kcal/mol
14,GGGGGCACGTGCGTCA,-0.27 kcal/mol
15,TAGATCACGTGTGGCT,0.32 kcal/mol
16,TTGAGCACGTGAATCT,0.34 kcal/mol
17,GGGCTCACGTGTTGAG,0.31 kcal/mol
18,ATGGCCACGTGGTTAG,-0.21 kcal/mol
19,TGCTACACGTGAGGGG,0.15 kcal/mol
20,CCTATCACGTGGTGGT,0.08 kcal/mol
21,TTGTACACGTGTAAGA,0.09 kcal/mol
22,TTCATCACGTGTGTTC,0.26 kcal/mol
23,GGATTCACGTGCGTGT,0.18 kcal/mol
24,TGAAGCACGTGGTCGG,-0.21 kcal/mol
25,GTATACACGTGCGGTT,0.11 kcal/mol
26,TATATCACGTGTACTT,0.24 kcal/mol

row,Sequence,relative binding free energy
1,CTTTACACGTGTCTTT,0.13 kcal/mol
2,ATTTACACGTGGGGAA,0.01 kcal/mol
3,TGAGGCACGTGGGTGT,-0.16 kcal/mol
4,CGCTGCACGTGGGTGA,-0.12 kcal/mol
5,TATGGCACGTGTGTCT,-0.09 kcal/mol
6,TTGGTCACGTGCTTCA,0.1 kcal/mol
7,TTTCTCACGTGATGTT,0.31 kcal/mol
8,GGCGACACGTGATGGG,0.22 kcal/mol
9,GTGGTCACGTGCACGG,0.07 kcal/mol
10,AGGTGCACGTGTGCTG,-0.06 kcal/mol
11,GGGGTCACGTGGAGCC,0.16 kcal/mol
12,AACTACACGTGGTTGG,0.15 kcal/mol
13,TGTACCACGTGGAGGT,-0.09 kcal/mol
14,CAGATCACGTGTGGTA,0.43 kcal/mol
15,TATGTCACGTGGGTGG,-0.04 kcal/mol
16,AAGTGCACGTGGTTGA,-0.27 kcal/mol
17,TCATTCACGTGGTAGT,0.16 kcal/mol
18,TGGTACACGTGGCTTG,-0.07 kcal/mol
19,GTGATCACGTGGGTTC,0.12 kcal/mol
20,AGGGCCACGTGCGGAG,-0.21 kcal/mol
21,AGCTGCACGTGGGGGC,-0.12 kcal/mol
22,AGTTTCACGTGCTGCG,0.16 kcal/mol
23,AGGCGCACGTGAAGGT,0.21 kcal/mol
24,TGTTTCACGTGGTTAG,0.25 kcal/mol
25,AATCGCACGTGAAGGG,0.38 kcal/mol
26,CGTTTCACGTGTTATA,0.22 kcal/mol

row,Sequence,relative binding free energy
1,ATGTTCACGTGAATTG,0.24 kcal/mol
2,AATGACACGTGGTTGT,-0.11 kcal/mol
3,GGTGACACGTGTGACG,0.08 kcal/mol
4,TGCGACACGTGTGCGT,-0.06 kcal/mol
5,ATGAGCACGTGGCTTT,-0.28 kcal/mol
6,TGATGCACGTGTCGCG,-0.03 kcal/mol
7,TGTTTCACGTGTAAGC,0.44 kcal/mol
8,TGAGTCACGTGGGTAT,0.07 kcal/mol
9,GCTGCCACGTGAGGTG,0.2 kcal/mol
10,CTCGGCACGTGGGTTT,-0.21 kcal/mol
11,TATGGCACGTGGAGAT,-0.09 kcal/mol
12,TTAGTCACGTGTTTGA,0.13 kcal/mol
13,TTGATCACGTGAAGTA,0.35 kcal/mol
14,GTTTGCACGTGTGTAC,-0.01 kcal/mol
15,TTGTACACGTGTTCTT,-0.08 kcal/mol
16,GGTTACACGTGAGGAC,0.29 kcal/mol
17,AGTATCACGTGAGCGT,0.15 kcal/mol
18,TGATGCACGTGTACGT,-0.04 kcal/mol
19,TCTGCCACGTGTTGGT,-0.06 kcal/mol
20,GGGGACACGTGAATGG,0.24 kcal/mol
21,TTGTGCACGTGGATTA,0.03 kcal/mol
22,TCTTGCACGTGCGGGT,-0.09 kcal/mol
23,TGGTTCACGTGATGAG,0.43 kcal/mol
24,GAATGCACGTGAGGTA,0.31 kcal/mol
25,AACATCACGTGTTTGG,0.18 kcal/mol
26,TATCGCACGTGGGTAT,-0.17 kcal/mol

row,Sequence,relative binding free energy
1,CGTTTCACGTGTGATT,0.42 kcal/mol
2,GTTGCCACGTGGTATA,0 kcal/mol
3,TTTGGCACGTGGGGCG,-0.29 kcal/mol
4,TTTTCCACGTGGTTGA,-0.01 kcal/mol
5,GTGAGCACGTGGATAG,-0.1 kcal/mol
6,AGTGTCACGTGTGTCA,-0.02 kcal/mol
7,AGGTCCACGTGTGATG,0.04 kcal/mol
8,GGGGTCACGTGGCTAG,0.08 kcal/mol
9,TAGAGCACGTGTTTGA,-0.17 kcal/mol
10,ATTCACACGTGATTGT,0.17 kcal/mol
11,TGAGTCACGTGCGAGC,0.25 kcal/mol
12,TAGGGCACGTGACGGT,-0.02 kcal/mol
13,TTTGACACGTGGGGAA,-0.08 kcal/mol
14,TGTGTCACGTGGTGTA,-0.01 kcal/mol
15,TGAACCACGTGGGGGG,-0.26 kcal/mol
16,AGTGGCACGTGATGAA,0.04 kcal/mol
17,TTTTACACGTGGCCTG,-0.02 kcal/mol
18,AGGGCCACGTGCGGAA,0 kcal/mol
19,GGGAGCACGTGATAAG,0.06 kcal/mol
20,ATCGTCACGTGGTCGG,0.06 kcal/mol
21,TCACTCACGTGATGGG,0.38 kcal/mol
22,GTGTACACGTGAGATG,0.2 kcal/mol
23,TTGGGCACGTGTTTGA,-0.03 kcal/mol
24,GGCTTCACGTGTGATA,0.36 kcal/mol
25,GGGACCACGTGGTGTA,-0.23 kcal/mol
26,CAGTTCACGTGAGCGG,0.32 kcal/mol

row,Sequence,relative binding free energy
1,ATGTACACGTGGTATT,0.05 kcal/mol
2,AGATACACGTGGGTTA,-0.05 kcal/mol
3,ATGGACACGTGTTTTA,0.04 kcal/mol
4,AGGATCACGTGATTGT,0.31 kcal/mol
5,TCTGTCACGTGGTGTG,0.07 kcal/mol
6,GAATTCACGTGGGGTC,0.23 kcal/mol
7,AATAGCACGTGGGGCT,-0.21 kcal/mol
8,GGTGCCACGTGAGGTC,0.16 kcal/mol
9,AAGGGCACGTGTTTCA,-0.11 kcal/mol
10,TTTGGCACGTGTCATC,-0.05 kcal/mol
11,TTGGTCACGTGGGATG,0.07 kcal/mol
12,ATTGTCACGTGATTTA,0.28 kcal/mol
13,TGAATCACGTGGCTTT,0.13 kcal/mol
14,TTCCACACGTGGGGGG,-0.13 kcal/mol
15,ACCGGCACGTGGGGGA,-0.28 kcal/mol
16,GTTATCACGTGGTATT,0.13 kcal/mol
17,AGGTGCACGTGTTCAT,0.12 kcal/mol
18,ATTCTCACGTGGCGGG,0.18 kcal/mol
19,GTGTACACGTGAGTGT,0.33 kcal/mol
20,CTTGGCACGTGTGTCT,-0.07 kcal/mol
21,GTGTTCACGTGAGAAG,0.37 kcal/mol
22,TCGTGCACGTGATGGT,0.1 kcal/mol
